# Results from article PMC4336329 (PLoS ONE, 2015).
# Out of some 310,000 compounds screened, about 2,200 (0.71%) showed an effect of 50% or more. The effect is printed as a negative number. Some of the results follow.
# Biological target: human ether-à-go-go-related gene (hERG) potassium channel (human, UniProt Q12809)
# Assay: primary screen, population patch clamp on CHO cells stably expressing hERG
# Sequence of human ether-à-go-go-related gene (hERG) potassium channel (Q12809 whole entry, looked up): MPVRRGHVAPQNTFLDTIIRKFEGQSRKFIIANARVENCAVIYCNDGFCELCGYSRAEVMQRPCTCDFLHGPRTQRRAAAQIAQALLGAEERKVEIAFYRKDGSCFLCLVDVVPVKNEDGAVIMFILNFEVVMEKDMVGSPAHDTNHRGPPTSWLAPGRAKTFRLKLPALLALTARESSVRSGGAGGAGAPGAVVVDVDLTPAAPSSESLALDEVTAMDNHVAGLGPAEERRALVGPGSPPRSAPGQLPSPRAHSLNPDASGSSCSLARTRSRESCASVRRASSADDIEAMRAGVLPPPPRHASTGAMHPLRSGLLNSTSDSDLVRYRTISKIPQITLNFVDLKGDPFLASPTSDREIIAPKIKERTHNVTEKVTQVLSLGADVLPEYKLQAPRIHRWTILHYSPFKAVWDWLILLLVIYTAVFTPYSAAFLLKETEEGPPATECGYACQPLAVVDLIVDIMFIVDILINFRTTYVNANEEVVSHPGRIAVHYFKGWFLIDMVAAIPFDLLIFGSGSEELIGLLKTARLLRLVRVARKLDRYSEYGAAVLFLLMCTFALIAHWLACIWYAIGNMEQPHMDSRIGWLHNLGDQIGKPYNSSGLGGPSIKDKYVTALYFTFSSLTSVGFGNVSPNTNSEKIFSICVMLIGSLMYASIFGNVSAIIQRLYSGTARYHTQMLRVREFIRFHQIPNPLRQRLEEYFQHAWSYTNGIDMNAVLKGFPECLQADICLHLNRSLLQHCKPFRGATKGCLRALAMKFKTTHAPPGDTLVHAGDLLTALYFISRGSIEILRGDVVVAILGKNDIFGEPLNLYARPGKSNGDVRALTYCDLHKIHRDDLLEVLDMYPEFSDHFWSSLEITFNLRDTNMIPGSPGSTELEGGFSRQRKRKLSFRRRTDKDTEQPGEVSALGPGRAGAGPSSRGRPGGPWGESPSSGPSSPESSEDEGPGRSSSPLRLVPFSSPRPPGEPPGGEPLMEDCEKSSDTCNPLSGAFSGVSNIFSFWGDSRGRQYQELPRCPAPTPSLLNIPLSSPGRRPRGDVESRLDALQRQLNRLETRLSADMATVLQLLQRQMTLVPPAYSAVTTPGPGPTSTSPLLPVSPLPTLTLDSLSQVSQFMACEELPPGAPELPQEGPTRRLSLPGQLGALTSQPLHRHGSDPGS
row,Structure (SMILES),"hERG current change (%, negative = inhibition) at 1uM"
1,CCOC(=O)c1nc(C)sc1-c1ccnn1S(=O)(=O)c1cccc(Cl)c1,19.4%
2,CCOC(=O)C1=C(C)N(CCCC(=O)O)C(=O)NC1c1ccccc1OS(=O)(=O)c1ccc(C)cc1 (stereo not shown),11.8%
3,O=C(CCN1C(=O)[C@H]2CC=CC[C@H]2C1=O)NCc1nc(-c2ccc(Cl)cc2)no1,5.81%
4,Cc1ccc(CS(=O)(=O)CCC(=O)NCCN2CCCCC2C)cc1 (stereo not shown),9.58%
5,COc1ccc(NC(=O)C2CCC(=O)N2C(=O)OCc2ccccc2)cc1 (stereo not shown),13.5%
6,CCOC(=O)C1CCCN(c2c(NCCCN(C)c3ccccc3)c(=O)c2=O)C1 (stereo not shown),4.8%
7,CCOC(=O)C1CCCN(S(=O)(=O)c2cn(C)c(=O)n(C)c2=O)C1 (stereo not shown),13.2%
8,C=C1C(=O)O[C@H]2[C@H]1[C@H](OC(=O)CC(=O)O[C@@H]1C[C@@H](C)[C@@H]3C=CC(=O)[C@@]3(C)[C@H]3OC(=O)C(=C)[C@H]13)C[C@@H](C)[C@H]1C=CC(=O)[C@]12C,19.2%
9,Cc1ccc(CNC(=O)c2cc(C)nn2-c2ccccc2)cc1,-9.03%
10,CCC(=O)NC(=S)Nc1ccc(NC(=O)c2ccc([N+](=O)[O-])cc2)cc1,15.2%
11,CCCC(=O)C1=C(O)C(C(=O)OC)C(C)(C)CC1=Nc1cccc2ccccc12 (stereo not shown),0.464%
12,COCCN1C(=O)N(c2cccc(C)c2)C(=O)C1CC(=O)Nc1cc(OC)cc(OC)c1 (stereo not shown),10.9%
13,COc1ccc(Cc2nnc(NC(=O)c3ccc(OC)cc3OC)s2)cc1,8.51%
14,COc1ccc(CN2CCN(C(=O)c3cccs3)CC2)cc1.O=C(O)C(=O)O,4.91%
15,CCN(CC)S(=O)(=O)c1ccc(N2CCCCC2)c(C(=O)Nc2ccccc2N2CCOCC2)c1,-16.4%
16,O=C(CSc1ncnc2c1cnn2-c1ccccc1)Nc1ccccc1,8.54%
17,O=C(Cn1cc(Cl)ccc1=O)c1ccc(Cl)cc1,17.9%
18,CCC(NC(=O)C1CCCC1)c1ccc(C)cc1 (stereo not shown),13.5%
19,COc1ccc(F)cc1CSc1nnnn1-c1ccc(O)cc1,7.91%
20,Cc1cccc(C(=O)NCC(=O)NCCSc2ccc(Br)cc2)c1,5.89%
21,CC(NC(=O)CN(c1ccccc1F)S(C)(=O)=O)c1ccccc1 (stereo not shown),3.41%
22,CCN(Cc1ccccc1)C(=O)c1ccc(NC(=O)c2ccc(OC)cc2)cc1,20.1%

row,Structure (SMILES),"hERG current change (%, negative = inhibition) at 1uM"
1,Nc1cc(=O)[nH]c(SCC(=O)c2ccc(F)cc2)n1,6.43%
2,COc1ccc(CN2CCN(Cc3ccc(C(F)(F)F)cc3)CC2)cc1.O=C(O)C(=O)O,-24.5%
3,O=C(COc1ccc2c3c(c(=O)oc2c1)CCCC3)N[C@@H](Cc1ccccc1)C(=O)O,-9.98%
4,NC(=O)CC(NC(=O)c1ccccc1)c1ccc(NCc2ccccc2)c([N+](=O)[O-])c1 (stereo not shown),21.7%
5,CCCCN1C(=O)C(=O)NC[C@@H]1C(C)CC (stereo partly shown),15.4%
6,CC(=C1C(=O)c2ccccc2C1=O)N1CCN(c2ccccn2)CC1,0.63%
7,CCN(CC)CCOC(=O)c1ccc(N/C=C(/C#N)c2nc(-c3cccc(OC)c3)cs2)cc1,13.7%
8,Cc1cc(C)c(NC(=O)CNC(=O)CN(C)Cc2ccc(Br)s2)c(C)c1,7.83%
9,Cn1cccc1/C=C1\SC(=Nc2cccc(O)c2)NC1=O,6.89%
10,Cc1nc(Nc2ccccc2)sc1C(=O)Nc1ccccc1,13.3%
11,NC(=O)C1CN(S(=O)(=O)c2ccc(Cl)cc2F)c2ccccc2O1 (stereo not shown),7.68%
12,O=C(Cn1cccc1C(=O)c1ccccc1)NCc1ccco1,8.06%
13,CN(CC(=O)Nc1ncn[nH]1)S(=O)(=O)c1ccc(Cl)cc1,11.8%
14,CC1Cc2ccccc2N1C(=O)Cc1cccs1 (stereo not shown),7.82%
15,COC(=O)C1CCN(C(=O)/C=C/c2ccccc2)CC1,11.1%
16,CC(C)C(NC(=O)c1ccc2c(c1)OCO2)C(=O)N/N=C/c1cccs1 (stereo not shown),18.5%
17,CC(=O)N1c2ccc(S(=O)(=O)N3CCCC3)cc2CC1C(=O)NCc1ccc(OC(C)C)cc1 (stereo not shown),12.2%
18,CCOC(=O)C1=C(C)NC(=O)NC1c1ccc(C)o1 (stereo not shown),11.6%
19,CCOC(=O)c1cnn(-c2ccc(F)cc2)c1N,5.78%
20,CC(=O)OCC(CCn1cnc2cnc(N)nc21)COC(C)=O,16.8%
21,CNCCCOc1cccc(OC(C)C)c1.O=C(O)C(=O)O,7.86%
